The source of these data is the supplement of paper PMC11348887.

Where a name gives a salt, the structure may show the parent alone. This is one part of the list. Cut-off read from the data, not from the text of the source: active = -2 or less and inactive = the rest. Many values rest on one well or one pass, so single values are uncertain.
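Note: nuclei counted from DAPI counterstain by automated high-content image analysis, four fields per well at ×20 in 384-well plates, with sequential b-score then z-score normalization.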

This assay concerns hPSC-derived cortical neurons (WA09). Description: nuclei number (viability) z-score; higher = more surviving cells. To be noted: 5 µM; treatment: days 7-14 after plating, readout day 21.
Take `CC(=O)NO` [Acetohydroxamic acid]: the “nuclei number (z-score)” value was inactive: -0.13. The value for `O=NO` [Sodium Nitrite] was inactive: -0.164; that for `O=C(O)CCC(=O)Nc1ccc(Br)cn1` [Bikinin] was inactive: 0.462. Turning to `COc1ccc(C(=O)Nc2sc3c(c2C(N)=O)CCCC3)cc1OC`, the “nuclei number (z-score)” value is inactive: 8.79. As for `CC(=O)N[C@@H](CCC(N)=O)C(=O)O` [Aceglutamide], the “nuclei number (z-score)” value is inactive: 0.97. In the case of `CCC[C@H](Nc1nc(-c2ccc(NC(=O)NCC)c(OC)c2)ncc1C)c1cccnc1` [CYT997 (Lexibulin)], the “nuclei number (z-score)” value was active: -8.36. Regarding `COc1cc2ncc(-c3ccccc3)nc2cc1OC` [Tyrphostin AG 1296], the “nuclei number (z-score)” value is inactive: 0.649. In the case of `Cc1[nH]c(=O)c(C#N)cc1-c1ccncc1` [Milrinone], the “nuclei number (z-score)” value is inactive: 0.414. For the compound `CC(C)[C@H](CO)Nc1nc(Nc2cccc(Cl)c2)c2ncn(C(C)C)c2n1` [Purvalanol A], the “nuclei number (z-score)” value was inactive: 0.313. Turning to `Cc1ccnc2c1NC(=O)c1cccnc1N2C1CC1` [Nevirapine], the “nuclei number (z-score)” value is inactive: 4.24. The value for `CN(C)CCC=C1c2ccccc2CCc2ccccc21` [Amitriptyline HCl] was inactive: -0.237; that for `CC(=O)c1cc([N+](=O)[O-])c(Sc2cccc(Cl)c2Cl)s1` was inactive: 3.58; that for `Cn1c(=O)c2[nH]cnc2n(C)c1=O` [Aminophylline] was inactive: 0.494. `CS(=O)(=O)c1ccc(C2=C(c3ccccc3)C(=O)OC2)cc1` [Rofecoxib]: the “nuclei number (z-score)” value was inactive: 0.854. The value for `FC(F)(F)c1ccc(CNc2ccc(Cc3c[nH]c4ncc(Cl)cc34)cn2)cn1` [Pexidartinib (PLX3397)] was inactive: 0.0889. On to `O=C(Nc1ccccc1)c1ccccc1O` [Salicylanilide], for which the “nuclei number (z-score)” value was inactive: 0.461. The value for `Cc1ncc([N+](=O)[O-])n1CC(O)CCl` (stereo not drawn) [Ornidazole] was inactive: 0.0754; that for `CN1C(C(=O)Nc2ccccn2)=C(O)c2sccc2S1(=O)=O` [Tenoxicam] was inactive: 2.51; that for `N#Cc1ccc2[nH]cc(CCCCN3CCN(c4ccc5oc(C(N)=O)cc5c4)CC3)c2c1` [Vilazodone HCl] was inactive: -0.0916.

For the compound `CN(C)c1ccc2nc3ccc(=[N+](C)C)cc-3sc2c1` [Methylene Blue], the “nuclei number (z-score)” value was active: -6.32. For the compound `COc1cc(/C=C/C(=O)N2CCC=CC2=O)cc(OC)c1OC` [Piperlongumine], the “nuclei number (z-score)” value was active: -2.94.

With `Cc1cccc(C)c1NC(=O)C1CCCCN1C` (stereo not drawn) [Mepivacaine HCl], the “nuclei number (z-score)” value is inactive: -0.638. Consider `CCc1nc(-c2cccc(C)c2)c(-c2ccnc(NC(=O)c3ccccc3)c2)s1`, for which the “nuclei number (z-score)” value was inactive: 1.15. As for `Cc1c(C(N)=O)cc([N+](=O)[O-])cc1[N+](=O)[O-]` [Dinitolmide], the “nuclei number (z-score)” value was inactive: 1.29. In the case of `N=C(N)N` [Guanidine HCl], the “nuclei number (z-score)” value was inactive: 1.07. Take `CC1(COc2ccc3c(c2)ncn3-c2ccc3cccc(N4CCC(N)CC4)c3n2)COC1`: the “nuclei number (z-score)” value is inactive: -0.718. The value for `COc1ccccc1-c1cc(Nc2cccc(CS(N)(=O)=O)c2)ncn1` was inactive: 0.608; that for `CNCC[C@H](Oc1cccc2ccccc12)c1cccs1` [Duloxetine HCl] was inactive: -0.433. Turning to `COc1ccc(S(=O)(=O)Nc2nc(-c3cccc([N+](=O)[O-])c3)cs2)cc1OC`, the “nuclei number (z-score)” value was inactive: 0.114. As for `C[C@@H](Oc1cc(-n2cnc3ccc(CN4CCN(C)CC4)cc32)sc1C(N)=O)c1ccccc1C(F)(F)F`, the “nuclei number (z-score)” value was inactive: -0.972. For `COc1cc2c(cc1OC)C(=O)C(CC1CCN(Cc3ccccc3)CC1)C2` (stereo not drawn) [Donepezil HCl], the “nuclei number (z-score)” value is inactive: -0.593. For `OC[C@@H](O)[C@H](O)[C@@H](O)CO` [Xylitol], the “nuclei number (z-score)” value is inactive: 0.488. On to `COc1ccc([C@H]2CNC(=O)C2)cc1OC1CCCC1` [S- (+)-Rolipram], for which the “nuclei number (z-score)” value is inactive: 0.907. On to `CN(C(=O)c1ccc(F)cc1C(F)(F)F)C1CCN(c2nnc(-c3ccnn3C)c3ccccc23)CC1`, for which the “nuclei number (z-score)” value is inactive: -0.88.

With `COc1cc2c(cc1OC)CN(CCc1ccc(NC(=O)c3cc(OC)c(OC)cc3NC(=O)c3cnc4ccccc4c3)cc1)CC2` [Tariquidar], the “nuclei number (z-score)” value was inactive: -1.29. With `COc1cc(Cc2cnc(N)nc2N)cc(OC)c1OC` [Trimethoprim], the “nuclei number (z-score)” value is inactive: -0.79.

As to `CCCCOC(=O)c1ccc(N)cc1` [Butamben], the “nuclei number (z-score)” value was inactive: -0.144. Turning to `CCCCC1=NC2(CCCC2)C(=O)N1Cc1ccc(-c2ccccc2-c2nnn[nH]2)cc1` [Irbesartan], the “nuclei number (z-score)” value is inactive: 0.192. In the case of `CN(C)CC[C@H](CSc1ccccc1)Nc1ccc(S(=O)(=O)NC(=O)c2ccc(N3CCN(Cc4ccccc4-c4ccc(Cl)cc4)CC3)cc2)cc1[N+](=O)[O-]`, the “nuclei number (z-score)” value was active: -4.18.

`NC(=O)Cc1cccc(C(=O)c2ccccc2)c1N` [Nepafenac]: the “nuclei number (z-score)” value was inactive: 1.84. As for `C[C@H]1COC2=C1C(=O)C(=O)c1c2ccc2c1CCCC2(C)C` [Cryptotanshinone], the “nuclei number (z-score)” value was inactive: 1.89. On to `CC[C@H]1OC(=O)[C@H](C)[C@@H](O[C@H]2C[C@@](C)(OC)[C@@H](O)[C@H](C)O2)[C@H](C)[C@@H](O[C@@H]2O[C@H](C)C[C@H](N(C)C)[C@H]2O)[C@](C)(OC)C[C@@H](C)C(=O)[C@H](C)[C@@H](O)[C@]1(C)O` [Clarithromycin], for which the “nuclei number (z-score)” value is inactive: 0.413. As to `O=[N+]([O-])c1ccc2c(c1)S(=O)(=O)C=C2` [Stattic], the “nuclei number (z-score)” value is inactive: -1.74. The value for `CCCCCCCCC/C(=C\C1=C(C)C(=O)C(OC)=C(OC)C1=O)C(=O)O` was inactive: 0.725; that for `CCCCOc1c(C(=O)c2c(F)cc(C)cc2F)c[nH]c2nncc1-2` was inactive: 4.05; that for `Nc1ccccc1NC(=O)c1ccc(CNC(=O)OCc2cccnc2)cc1` [Entinostat (MS-275)] was active: -3.21. The value for `CCCC[S+]([O-])c1sc2nc(-c3cccs3)cc(-c3ccccc3)c2c1N` (stereo not drawn) was inactive: 0.12; that for `N=C(N)NC(=O)c1nc(Cl)c(N)nc1N` [Amiloride HCl dihydrate] was inactive: 0.307. Consider `N=C(N)NC(=O)c1nc(Cl)c(N)nc1N` [Amiloride HCl], for which the “nuclei number (z-score)” value is inactive: 0.502. Take `CC(C)C[C@@H]1NC(=O)[C@@H](C(C)C)NC(=O)[C@@H]2CCCN2C(=O)[C@@H](CC(=O)O)NC(=O)[C@@H](Cc2c[nH]c3ccccc23)NC1=O`: the “nuclei number (z-score)” value is inactive: 0.485. Turning to `CN(C)C(=O)COC(=O)Cc1ccc(OC(=O)c2ccc(NC(=N)N)cc2)cc1` [Camostat Mesilate], the “nuclei number (z-score)” value was inactive: 0.0476. On to `CCOc1cc([C@@H](CS(C)(=O)=O)N2C(=O)c3cccc(NC(C)=O)c3C2=O)ccc1OC`, for which the “nuclei number (z-score)” value was inactive: 0.646. Consider `NS(=O)(=O)c1cc(C(=O)O)c(NCc2ccco2)cc1Cl` [Furosemide], for which the “nuclei number (z-score)” value is inactive: 0.0728. The value for `O=C(O)c1cc(=O)c2ccccc2o1` [Chromocarb] was inactive: -0.116; that for `CCc1cncnc1N1CCN(Cc2nc3ccc(C(F)(F)F)cc3[nH]2)CC1` was inactive: -0.331; that for `COc1cc(C(=O)NS(=O)(=O)c2ccccc2C)ccc1Cc1cn(C)c2ccc(NC(=O)OC3CCCC3)cc12` [Zafirlukast] was inactive: -0.352. Regarding `CN[C@H]1CN(c2ccc3c(=O)c(C(=O)O)cn(-c4nccs4)c3n2)C[C@@H]1OC` [Voreloxin (SNS-595)], the “nuclei number (z-score)” value is active: -4.56. Turning to `CC1=C(C(=O)OC(C)C)C(c2cccc([N+](=O)[O-])c2)C(C(=O)OC2CN(C(c3ccccc3)c3ccccc3)C2)=C(N)N1` (stereo not drawn) [Azelnidipine], the “nuclei number (z-score)” value is active: -2.63. The value for `Cc1cc(C2CCCCC2)n(O)c(=O)c1` [Ciclopirox] was active: -9.28; that for `Cc1cc(C2CCCCC2)n(O)c(=O)c1` [Ciclopirox ethanolamine] was active: -6.45. As to `CN[C@H](CC(C)C)C(=O)N[C@H]1C(=O)N[C@@H](CC(N)=O)C(=O)N[C@H]2C(=O)N[C@H]3C(=O)N[C@H](C(=O)N[C@H](C(=O)O)c4cc(O)cc(O)c4-c4cc3ccc4O)[C@H](O)c3ccc(c(Cl)c3)Oc3cc2cc(c3O[C@@H]2O[C@H](CO)[C@@H](O)[C@H](O)[C@H]2O[C@H]2C[C@](C)(N)[C@H](O)[C@H](C)O2)Oc2ccc(cc2Cl)[C@H]1O` [Vancomycin HCl], the “nuclei number (z-score)” value was inactive: -0.359. With `CNS(=O)(=O)Cc1ccc2[nH]cc(CCN(C)C)c2c1` [Sumatriptan Succinate], the “nuclei number (z-score)” value was inactive: -0.0464. The value for `O=c1c(O)c(-c2ccc(O)c(O)c2)oc2cc(O)ccc12` [Fisetin] was inactive: 0.0281. As for `O=C(COc1ccc(Cl)cc1)NC1CCC(NC(=O)COc2ccc(Cl)cc2)CC1` (stereo not drawn) [ISRIB (trans-isomer)], the “nuclei number (z-score)” value was inactive: -0.585. The value for `COc1cc2ncnc(Oc3cccc(NC(=O)Nc4cc(C(C)(C)C(F)(F)F)on4)c3)c2cc1OC` was inactive: 1.21; that for `NS(=O)(=O)c1cc2c(cc1Cl)N=CNS2(=O)=O` [Chlorothiazide] was inactive: -0.0531; that for `COc1ccc(-c2cnc3c(-c4cccc5ncccc45)cnn3c2)cc1` was inactive: -0.0755. In the case of `NCC(=O)Nc1ccc(-n2nc(C(F)(F)F)cc2-c2ccc3c(ccc4ccccc43)c2)cc1`, the “nuclei number (z-score)” value is active: -2.63. Consider `COc1ccc(-c2nc3cc(C4=NNC(=O)CC4C)ccc3[nH]2)cc1` (stereo not drawn) [Pimobendan], for which the “nuclei number (z-score)” value was inactive: 0.292. `Cc1ccc(S(=O)(=O)n2c(N)nc3ccccc32)cc1` [ML130 (Nodinitib-1)]: the “nuclei number (z-score)” value is inactive: -0.32.

`O=C(NCc1ccncc1)C12CC3CC(C1)CC(c1ccc(Cl)cc1)(C3)C2`: the “nuclei number (z-score)” value is inactive: 4. For `CCOC(=O)[C@H](CCc1ccccc1)N[C@@H](C)C(=O)N1[C@H](C(=O)O)C[C@@H]2CCC[C@@H]21` [Ramipril], the “nuclei number (z-score)” value is inactive: -0.956. The value for `NC(=O)c1ncn([C@@H]2O[C@H](CO)[C@@H](O)[C@H]2O)n1` [Ribavirin] was inactive: 0.17.
